Data reported in PubChem BioAssay AID493208 (National Center for Advancing Translational Sciences (NCATS), 2011).
In all, about 44,000 compounds went through this assay and about 340 (0.77%) were called active. Roughly 5% stayed inconclusive and do not appear here. Calls follow the shape of the dose curve; as a rule, active = well fitted inhibition curve with a large enough effect; inconclusive = small, poorly fitted or top-dose-only effect; inactive = flat fitted curve, though single readings scatter. This is one part of the list.

Test: Acumen qHTS Assay for Inhibitors of the mTORC1 Signaling Pathway in MEF (Tsc2-/-, p53-/-) Cells: Sytravon;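 also: plate controls were DMSO for no effect and rapamycin for full effect; nearly all actives have a fitted effect of over 50% in size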
Details: phospho-rpS6 immunofluorescence/PI, 24 h; series mostly up to 38.3 µM; activity change, negative = inhibition: at the top concentration
In short: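 Tsc2-/-, p53-/- MEFs (empty-vector stable line) in DMEM + 10% FBS were treated with compounds 24 h at 37 degree Celsius, fixed, and immunostained for phospho-rpS6 (Alexa-488) with propidium iodide counterstain. Laser-scanning cytometry gave % positive cells, normalized against 7.5 nM rapamycin and DMSO.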

Activity change, negative = inhibition, inactive:
COc1ccc(CNC(=O)C2CCC(CNS(=O)(=O)c3ccc4c(c3)CCCC(=O)N4)CC2)cc1 (stereo not given) -1.74%
Cc1ccc(-c2cn3c(n2)sc2cc(C(=O)NCCC4=CCCCC4)ccc23)cc1 -1.97%
COc1cc(-c2nc(Cn3nnc(C(=O)Nc4cccc(Cl)c4)c3C)c(C)o2)cc(OC)c1OC -6.34%
CCOC(=O)CSc1nc2c(sc3ccccc32)c(=O)n1CCO -0.134%
COc1ccc(OCC(O)Cn2c(NCCO)nc3c2c(=O)n(C)c(=O)n3C)cc1 (stereo not given) 0.272%
Cc1nn(CC(=O)N2CCN(c3ccc(Cl)cc3)CC2)c(=O)c2cccn12 -7.15%
Cc1cc(C)c(NC(=O)C2CCN(c3nn4c(=O)cc(C)nc4s3)CC2)c(C)c1 0.649%
COc1ccc(NCc2cccn2-c2nnc(N3CCCCC3)s2)cc1OC 5.42%
Cc1ccc2nc(COc3ccccc3NC(=O)c3ccc(F)cc3)cc(=O)n2c1 -11.6%
O=C(CSc1nc2c([nH]c3ccccc32)c(=O)n1-c1ccc(Cl)cc1)c1ccccc1 -7.71%
Cc1cc(C)cc(NC(=O)Cn2cc(C(=O)C3CCCCC3)c3ccccc32)c1 -25.3%
Cc1ccc2c(=O)cc(C(=O)Nc3ccc(S(=O)(=O)Nc4ncccn4)cc3)oc2c1C 6.17%
Cc1ccc(-n2c(=O)c3c(c4cc(C)ccc4n3C)n(CC(=O)N3CCCC3)c2=O)cc1 -2.32%
O=C(CSC1=Nc2ccccc2N=C(c2ccc(F)cc2)C1)Nc1ccccc1 -7.6%
COc1ccccc1CNC(=O)c1cn(C)c2ccc(S(=O)(=O)N(C)C3CCCCC3)cc2c1=O 0.557%
CC(C)(C)C1CCc2oc3ccc(NS(=O)(=O)c4ccc(C(=O)O)cc4)cc3c2C1 (stereo not given) 1.99%
COc1ccc(Cn2c(SCC(=O)N(C)Cc3ccccc3)nc3ccccc32)cc1 0%
Cc1ccc(NC(=O)Cn2c(=O)nc(-c3ccccc3)c3ccccc32)cc1F 2.49%
COc1ccc(CCNc2ncnc3c2cnn3-c2cc(Cl)ccc2C)cc1 -12.6%
Cc1cccc(-c2noc(-c3ccc(N4CCOCC4)c([N+](=O)[O-])c3)n2)c1 -12%
CC1CCN(S(=O)(=O)c2ccc3c(ccc(=O)n3CC(=O)Nc3cccc(F)c3)c2)CC1 -2.01%
O=C(Nc1cnc(N2CCN(c3ccccc3)CC2)c(C(=O)O)c1)c1cccs1 -0.247%
Cc1ccc(NC(=O)c2cc(S(=O)(=O)NCCc3ccc(Cl)cc3)ccc2F)cc1 -0.753%
CC1CCCCN1C(=O)c1cc(-c2ccc(Br)cc2)on1 (stereo not given) -3.68%
COc1ccc(C2N=C(N)Nc3nc4ccccc4n32)cc1 (stereo not given) -6.73%
CCOC(=O)C1CCN(c2nc3c(S(=O)(=O)c4ccc(C)c(C)c4)nnn3c3ccc(Cl)cc23)CC1 -7.09%
CC1=C(C(=O)N2CCN(c3cccc(Cl)c3)CC2)C2(CCCCC2)OC1=O 8.22%
CCN(C(=O)c1cc2c(=O)oc3ccc(C)cc3c2s1)c1ccccc1C -9.43%
CCN(CC)S(=O)(=O)c1ccc2nc(NC(=O)c3cncc(Br)c3)sc2c1 0%
Cc1cccn2c(=O)c(C(=O)NC(C)c3ccccc3)cnc12 (stereo not given) -0.0959%
Cc1ccc(OCc2nc(-c3ccc(C(=O)NCc4ccc(OC(C)C)cc4)cc3)oc2C)cc1 -0.68%
CCOc1ccc(N(C)S(=O)(=O)c2ccc3[nH]cc(C(=O)NCc4ccccc4)c(=O)c3c2)cc1 -9.11%
Cc1nc2scc(C)n2c(=O)c1S(=O)(=O)NCCc1ccccc1 -2.48%
Cc1cc(C)cc(N2C(=O)N(Cc3cccc(F)c3)c3ccccc3S2(=O)=O)c1 -5.92%
Cc1ccc(C(=O)c2cn(Cc3ccc(Cl)cc3)c3nc(C)ccc3c2=O)cc1 -3.51%
COc1ccc(N2CCN(C(=O)CSc3n[nH]c(-c4ccccc4Cl)n3)CC2)cc1 -28.1%
COc1ccc(Nc2oc(-c3ccc(COc4ccccc4C)o3)nc2C#N)cc1 -14.5%
Cc1ccc(C)c(CN2C(=O)c3ccccc3S(=O)(=O)c3ccc(C(=O)NCCC4=CCCCC4)cc32)c1 -0.796%
Cc1cc(C)c(NC(=O)C(C)n2nnc3sc4c(c3c2=O)CCCC4)c(C)c1 (stereo not given) -3.38%
Cc1cc(NC(=O)CN2C(=O)c3cccnc3Sc3ccccc32)ccc1Br 0.239%
COc1ccc(OC)c2sc(N(Cc3cccnc3)C(=O)c3ccco3)nc12 0.485%
Cc1ccc(CNC(=O)c2cc(-c3ccc(Cl)cc3)on2)cc1 0.0775%
CCN1CCN(c2ncc3c(n2)CC(c2ccccc2O)CC3=O)CC1 (stereo not given) -10.1%
Cc1ccc2oc(=O)c(S(=O)(=O)c3ccc(C(C)(C)C)cc3)cc2c1 -5.76%
CN(C)c1ccc(CNC(=O)CN2CCSc3ccc(S(=O)(=O)N(C)C)cc32)cc1 -0.596%
Cc1ccc(NC(=O)C2CCN(c3nn4cc(-c5ccc(C)cc5)nc4s3)CC2)cc1 4.45%
CCCCCn1c(=O)[nH]c2cc(C(=O)N3CCN(c4cccc(C(F)(F)F)c4)CC3)ccc2c1=O -8.77%
Cc1ccc(CNC(=O)CNS(=O)(=O)c2cccs2)cc1 3.37%
CCN(c1ccccc1)S(=O)(=O)c1nnc(NC(=O)COc2cccc(C)c2)s1 0%
COc1ccc(CNC(=O)c2oc3c(c2C)-c2nn(Cc4ccc(Cl)cc4)cc2CC3)cc1 6.89%
O=C(Nc1ccc(Br)cc1)C1CCCN1S(=O)(=O)c1ccc(F)cc1 (stereo not given) 0.185%
CC(C)(C)c1ccc(C(=O)Nc2sc3c(c2C#N)CCC(C(C)(C)C)C3)cc1 (stereo not given) 8.9%
CCOc1ccc(NC(=O)Cn2c(=O)n(CC(=O)NCc3ccccc3Cl)c(=O)c3sccc32)cc1 -22.8%
COc1cc(OC)c(NS(=O)(=O)c2c(C(=O)N3CCC(C)CC3)c(C)n(C)c2C)cc1Cl 0%
Cc1cc(Nc2ccc(C(=O)O)c(O)c2)n2ncnc2n1 -8.59%
COc1ccc(CCNC(=O)CCn2c(=O)c3ccccc3n(Cc3ccccc3)c2=O)cc1OC -7.26%
CC(C)c1nn2c(=O)cc(COC(=O)c3ccccc3NC(=O)c3cccc(Cl)c3)nc2s1 5.54%
Cc1nc2ccn(Cc3cccnc3)c(=O)c2cc1C(=O)N1CCN(c2ccc(F)cc2)CC1 -7.49%
COC(=O)c1ccccc1NC(=O)c1cnc2c(-c3cccc(C)c3)c(C)nn2c1C -4.05%
CCc1ccc(C(=O)c2cn(Cc3ccc(F)cc3)c3cc(OC)c(OC)cc3c2=O)cc1 -8.12%
